The text below walks through data of PMC4336329 (PLoS ONE, 2015).

Out of some 310,000 compounds screened, about 2,200 (0.71%) showed an effect of 50% or more. Effects have a minus sign here. Some of the results follow.

For the experiment, the target named is human ether-à-go-go-related gene (hERG) potassium channel (human, UniProt Q12809). The experiment in a line: primary screen, population patch clamp on CHO cells stably expressing hERG.
Chain of human ether-à-go-go-related gene (hERG) potassium channel (Q12809 whole entry, looked up): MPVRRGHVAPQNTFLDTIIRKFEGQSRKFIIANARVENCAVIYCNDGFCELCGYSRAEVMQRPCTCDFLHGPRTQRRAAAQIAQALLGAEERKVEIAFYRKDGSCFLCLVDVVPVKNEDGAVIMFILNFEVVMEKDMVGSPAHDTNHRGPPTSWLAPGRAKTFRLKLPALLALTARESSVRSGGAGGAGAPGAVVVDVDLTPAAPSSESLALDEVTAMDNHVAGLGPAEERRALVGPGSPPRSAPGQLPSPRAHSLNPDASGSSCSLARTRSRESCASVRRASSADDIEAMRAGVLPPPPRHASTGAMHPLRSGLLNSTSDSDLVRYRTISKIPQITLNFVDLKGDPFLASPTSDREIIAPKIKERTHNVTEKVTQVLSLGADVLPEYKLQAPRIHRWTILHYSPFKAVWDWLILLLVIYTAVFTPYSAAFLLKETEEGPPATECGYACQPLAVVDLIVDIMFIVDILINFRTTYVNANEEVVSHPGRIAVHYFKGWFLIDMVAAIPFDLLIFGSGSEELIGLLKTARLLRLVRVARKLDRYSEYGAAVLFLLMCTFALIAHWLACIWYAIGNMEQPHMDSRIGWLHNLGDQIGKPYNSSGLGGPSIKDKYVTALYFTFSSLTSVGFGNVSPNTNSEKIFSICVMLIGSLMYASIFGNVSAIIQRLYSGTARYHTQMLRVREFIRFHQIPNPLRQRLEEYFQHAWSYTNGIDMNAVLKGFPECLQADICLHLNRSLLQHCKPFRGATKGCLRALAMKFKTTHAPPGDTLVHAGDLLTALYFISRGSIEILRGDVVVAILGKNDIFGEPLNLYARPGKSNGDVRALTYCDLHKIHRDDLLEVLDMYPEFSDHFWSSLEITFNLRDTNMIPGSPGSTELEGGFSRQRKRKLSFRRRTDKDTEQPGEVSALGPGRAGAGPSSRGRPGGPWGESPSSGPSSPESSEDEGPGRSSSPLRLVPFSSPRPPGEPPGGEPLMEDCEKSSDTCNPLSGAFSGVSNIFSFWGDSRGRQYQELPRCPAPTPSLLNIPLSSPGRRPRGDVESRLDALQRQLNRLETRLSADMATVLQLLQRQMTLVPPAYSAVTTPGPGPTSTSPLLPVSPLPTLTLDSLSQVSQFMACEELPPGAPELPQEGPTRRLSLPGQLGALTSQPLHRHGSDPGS
For `COc1ccc(NC(=O)CN(C)C(=O)CCc2nc3cc(S(=O)(=O)N4CCOCC4)ccc3n2C)cc1`, the “hERG current change (%, negative = inhibition) at 1uM” value is listed as 2.42%.

Consider `COc1ccc(C)cc1NC(=O)C12CCC(C)(C(=O)O1)C2(C)C` (centres unmarked), for which the “hERG current change (%, negative = inhibition) at 1uM” value is 13.4%.

`CC(=O)Cc1nsc(NC(=O)c2ccccc2Cl)n1`: the “hERG current change (%, negative = inhibition) at 1uM” value is listed as 17.7%.

As for `Cc1nnsc1C(=O)NC(C)c1ccccc1` (centres unmarked), the “hERG current change (%, negative = inhibition) at 1uM” value came out at 15.7%.

Regarding `O=C(NC12CC3CC(CC(C3)C1)C2)c1cncc(Br)c1`, the “hERG current change (%, negative = inhibition) at 1uM” value worked out at 7.72%.

As for `O=C(O)c1ccc2c(c1)OCCOCCOCCOCCOCCO2`, the “hERG current change (%, negative = inhibition) at 1uM” value is -12.4%.

As for `N#CC1=C(N)Oc2cc(N)ccc2C1c1ccccc1F` (centres unmarked), the “hERG current change (%, negative = inhibition) at 1uM” value was found to be 9.19%.

On to `Cc1nc2ccccc2c(=O)n1-n1cnnc1`, for which the “hERG current change (%, negative = inhibition) at 1uM” value came out at 5.37%.

`O=c1oc(/C=C/c2ccc([N+](=O)[O-])s2)nc2ccccc12`: the “hERG current change (%, negative = inhibition) at 1uM” value was 15.7%.

Take `CCOc1ccc(-n2c(=O)c3sccc3n(CC(=O)NCCc3ccc(OC)c(OC)c3)c2=O)cc1`: the “hERG current change (%, negative = inhibition) at 1uM” value was determined as 3.3%.

For the compound `COc1ccc(NC(=O)C(=O)NCCC2=CCCCC2)c(OC)c1`, the “hERG current change (%, negative = inhibition) at 1uM” value came to 8.27%.

Take `COc1ccccc1C(=O)NNC(=O)c1nn(Cc2ccccc2)c(=O)c2ccccc12`: the “hERG current change (%, negative = inhibition) at 1uM” value was -2.4%.

As for `Cn1nnnc1P(=O)(c1ccccc1)c1ccccc1`, the “hERG current change (%, negative = inhibition) at 1uM” value was 12.4%.

For `Cc1cc(NC(=O)CN2CCN(c3ccccn3)CC2)ccc1Br`, the “hERG current change (%, negative = inhibition) at 1uM” value is 9.16%.

Take `O=C(CNC(=O)/C(=C\c1ccc(Br)cc1)NC(=O)c1ccccc1)OCc1ccccc1`: the “hERG current change (%, negative = inhibition) at 1uM” value was -48%.

`COC(=O)/C(=N\OCc1ccc(C#N)cc1)c1c(C)nn(C)c1C`: the “hERG current change (%, negative = inhibition) at 1uM” value amounted to 8.46%.

Regarding `CCCCSc1cc(=O)n(-c2ccccc2)nc1C(=O)OCC`, the “hERG current change (%, negative = inhibition) at 1uM” value is 10.9%.

As to `CCC(=O)N1CN(S(=O)(=O)c2ccc(C)cc2)CC1C` (centres unmarked), the “hERG current change (%, negative = inhibition) at 1uM” value was 8.05%.

In the case of `Cc1ccc(S(=O)(=O)CC(=O)Nc2ccc(S(=O)(=O)Nc3ccccn3)cc2)cc1`, the “hERG current change (%, negative = inhibition) at 1uM” value is 13.7%.

Consider `Cc1ccc(S(=O)(=O)NCc2ccccc2)cc1C(=O)N1CCCCC1`, for which the “hERG current change (%, negative = inhibition) at 1uM” value is -1.44%.

For `O=C(CNc1ccccc1)N/N=C/c1ccc([N+](=O)[O-])o1`, the “hERG current change (%, negative = inhibition) at 1uM” value is reported as -5.9%.

Regarding `COC(=O)CNC(=O)c1ccccc1[N+](=O)[O-]`, the “hERG current change (%, negative = inhibition) at 1uM” value was 5.21%.

Consider `CC(C)n1c(Nn2cnnc2)nc2ccccc21`, for which the “hERG current change (%, negative = inhibition) at 1uM” value is -6.85%.

On to `COC(=O)CCN(C1CCCCC1)S(=O)(=O)c1ccc(S(=O)(=O)N2CCCCC2)cc1`, for which the “hERG current change (%, negative = inhibition) at 1uM” value is on record as 2.57%.

For `C=CCOC(=O)C1=C(C)NC(C)=C(C(=O)OCC=C)C1/C=C/c1ccccc1`, the “hERG current change (%, negative = inhibition) at 1uM” value was 2.33%.

On to `O=C(CNC(c1ccccc1)c1ccccc1)Nc1ccccc1-c1ccccc1`, for which the “hERG current change (%, negative = inhibition) at 1uM” value is 6.37%.

As for `O=C(NCc1ccco1)/C(=C/c1ccco1)NC(=O)c1ccc(Br)o1`, the “hERG current change (%, negative = inhibition) at 1uM” value is listed as -0.37%.

Turning to `CCc1nnc(NS(=O)(=O)c2ccc(NC(=O)CCC(=O)OC)cc2)s1`, the “hERG current change (%, negative = inhibition) at 1uM” value came out at 6.42%.

In the case of `COc1ccc(CNC(=O)CSc2nc3ccc(C)cc3[nH]2)cc1`, the “hERG current change (%, negative = inhibition) at 1uM” value worked out at 8.37%.

As for `CCOC(=O)c1nc(NNC(=O)c2ccc([N+](=O)[O-])cc2)sc1C`, the “hERG current change (%, negative = inhibition) at 1uM” value amounted to 5.59%.

With `COc1cc2cc(CN(Cc3cccs3)C(=S)Nc3cccc(C)c3)c(=O)[nH]c2cc1OC`, the “hERG current change (%, negative = inhibition) at 1uM” value is reported as 2.12%.

`COC(=O)c1[nH]c2ccccc2c1CN1CCOCC1`: the “hERG current change (%, negative = inhibition) at 1uM” value was determined as 9.36%.

Turning to `Cc1ccc(CNC(=O)NC2CCCCC2)cc1`, the “hERG current change (%, negative = inhibition) at 1uM” value turned out to be 18.3%.

For `O=C1c2ccccc2NC(c2ccccc2)N1/N=C/c1ccccc1` (centres unmarked), the “hERG current change (%, negative = inhibition) at 1uM” value came out at 9.26%.

With `O=C(c1ccc2c(=O)n(Cc3ccc4c(c3)OCO4)c(=S)[nH]c2c1)N1CCCCC1`, the “hERG current change (%, negative = inhibition) at 1uM” value is -0.608%.

`CC1CCCCN1C(=O)CCC(=O)Nc1nnc(C(F)(F)F)s1` (centres unmarked): the “hERG current change (%, negative = inhibition) at 1uM” value came to 20.4%.

`COCCOc1cc(N2C(=O)CSCC2=O)c(Cl)cc1Cl`: the “hERG current change (%, negative = inhibition) at 1uM” value is -8.18%.

As to `COc1ccc(C(=O)C[n+]2ccc3ccccc3c2C)cc1.[Br-]`, the “hERG current change (%, negative = inhibition) at 1uM” value was determined as 7.98%.

On to `C=CCc1c(C)[nH]c(=S)c(C#N)c1C`, for which the “hERG current change (%, negative = inhibition) at 1uM” value is 10.4%.

As to `CC1CC=C(c2ccccc2)C(=S)N1` (centres unmarked), the “hERG current change (%, negative = inhibition) at 1uM” value is recorded as 8.88%.

As to `CCOC(=O)C1=C(C)Nc2ccccc2N=C1NC(=O)Cc1ccc(Cl)c(Cl)c1`, the “hERG current change (%, negative = inhibition) at 1uM” value is -2.66%.

In the case of `N/C(=N/OCc1cccc([N+](=O)[O-])c1)c1nonc1N`, the “hERG current change (%, negative = inhibition) at 1uM” value is recorded as 4.47%.

For the compound `O=C(Nn1cnnc1)c1cc([N+](=O)[O-])cc([N+](=O)[O-])c1`, the “hERG current change (%, negative = inhibition) at 1uM” value came out at 5.11%.

In the case of `CCC(c1nnnn1CCOC)N(Cc1ccc(C)cc1)Cc1cc2cc(OC)ccc2[nH]c1=O` (centres unmarked), the “hERG current change (%, negative = inhibition) at 1uM” value was found to be 9.8%.

In the case of `O=C(Nc1ccc(S(=O)(=O)Nc2nccs2)cc1)c1ccc(N2C(=O)c3ccccc3C2=O)cc1`, the “hERG current change (%, negative = inhibition) at 1uM” value was determined as 13.6%.

Turning to `Cc1cccc(C)c1NC(=O)CN1C(=O)CCSc2ccc(S(=O)(=O)N3CCCC3)cc21`, the “hERG current change (%, negative = inhibition) at 1uM” value is 14.4%.

Regarding `COc1cc(NC(=O)C/C(C)=N/NC(=O)C(=O)NCCO)c(OC)cc1Cl`, the “hERG current change (%, negative = inhibition) at 1uM” value is on record as 14.4%.

Regarding `CCN=C1SC(CC(=O)Nc2sc(C)c(C)c2C(=O)OC)C(=O)N1CC` (centres unmarked), the “hERG current change (%, negative = inhibition) at 1uM” value came to 12%.

As to `CC(=O)N1c2ccc(S(=O)(=O)NCCC(=O)NC3CCCC(C)C3C)cc2CC1C` (centres unmarked), the “hERG current change (%, negative = inhibition) at 1uM” value is on record as 7.51%.

Consider `CS(=O)(=O)c1ccc2nc(NC(=O)Nc3ccc(Cl)cc3)sc2c1`, for which the “hERG current change (%, negative = inhibition) at 1uM” value came to 3.06%.

For `CCCCc1cc(=O)oc2cc(OCC(=O)N3C[C@H]4C[C@@H](C3)c3cccc(=O)n3C4)c(Cl)cc12`, the “hERG current change (%, negative = inhibition) at 1uM” value is -19.8%.

For `CN1CCN(c2cc(N3CCNCC3)ccc2[N+](=O)[O-])CC1`, the “hERG current change (%, negative = inhibition) at 1uM” value amounted to 9.91%.

As to `O=C(CN1CCN(c2ccccc2O)CC1)Nc1cccnc1Cl`, the “hERG current change (%, negative = inhibition) at 1uM” value was determined as 5.97%.

`CC(C(N)=O)N1C(=O)NC2(CCCc3ccccc32)C1=O` (centres unmarked): the “hERG current change (%, negative = inhibition) at 1uM” value is on record as 16.4%.

Consider `CC(=O)NC12CC3CC(C1)CC(C(=O)N1CCN(S(=O)(=O)c4ccccc4[N+](=O)[O-])CC1)(C3)C2`, for which the “hERG current change (%, negative = inhibition) at 1uM” value is 3.99%.

In the case of `O=C(CN1C(=O)COc2ccccc21)NCC1CCCO1` (centres unmarked), the “hERG current change (%, negative = inhibition) at 1uM” value is given as -1.08%.
